In PubChem BioAssay AID1452 (National Center for Advancing Translational Sciences (NCATS), 2008):
Out of some 150,000 compounds screened, about 190 (0.13%) were called active. Roughly 2% stayed inconclusive and do not appear here. Calls come from the whole dose curve; as a rule, active = well fitted inhibition curve with a large enough effect; inconclusive = small, poorly fitted or top-dose-only effect; inactive = flat fitted curve, though single readings scatter. The entries are a selection whose mix differs from that of the whole data set.

These molecules were tested against Polyunsaturated fatty acid lipoxygenase ALOX12 (Homo sapiens) (UniProt P18054) (assay: qHTS Assay for Inhibitors of 12-hLO (12-human lipoxygenase)). Settings: purified 12-hLO, xylenol orange hydroperoxide absorbance; series mostly up to 57.1 µM; activity change, negative = inhibition: at the top concentration.
Chain of UniProt P18054 (P18054 whole entry, looked up): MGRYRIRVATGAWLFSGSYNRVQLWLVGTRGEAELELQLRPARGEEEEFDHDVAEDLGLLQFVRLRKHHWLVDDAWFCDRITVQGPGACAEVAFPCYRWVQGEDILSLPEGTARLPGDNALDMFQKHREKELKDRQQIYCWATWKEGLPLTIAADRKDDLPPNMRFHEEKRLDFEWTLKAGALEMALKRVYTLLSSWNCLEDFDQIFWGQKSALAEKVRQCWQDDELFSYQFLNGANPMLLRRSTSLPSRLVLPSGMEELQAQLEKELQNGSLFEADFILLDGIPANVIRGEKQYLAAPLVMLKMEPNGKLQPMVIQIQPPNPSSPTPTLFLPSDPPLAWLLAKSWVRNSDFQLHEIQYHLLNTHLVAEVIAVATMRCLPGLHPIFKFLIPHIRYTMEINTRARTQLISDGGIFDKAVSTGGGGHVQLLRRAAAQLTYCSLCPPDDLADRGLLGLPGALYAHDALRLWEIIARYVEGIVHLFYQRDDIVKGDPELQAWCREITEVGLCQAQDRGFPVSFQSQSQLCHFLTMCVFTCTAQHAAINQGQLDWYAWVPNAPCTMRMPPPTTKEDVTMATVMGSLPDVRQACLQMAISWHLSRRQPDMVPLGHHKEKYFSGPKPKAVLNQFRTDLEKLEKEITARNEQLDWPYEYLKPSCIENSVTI
Description: Assay Provider: Holman, T.R., University of California, Santa Cruz Screening Center PI: Austin, C.P. Screening Center: NIH Chemical Genomics Center [NCGC] Human lipoxygenase 12hLO is a member of the closely related lipoxygenase family of enzymes which catalyze the site-specific oxidation of arachidonic acid to various hormone precursor molecules and as such is a candidate for drug development in a variety of disease areas, such as cancer and inflammation. Inhibition of 12hLO activity was screened by utilizing arachidonic acid as a substrate. The extent of hydroperoxide product formation was measured by a secondary chromogenic reaction in which xylenol orange (XO, Sigma-Aldrich, cat. number 39,818-7) reacts with the ferric ions produced from the reaction between the hydroperoxide and ferrous ions. The Fe(III)-XO complex is characterized with red-shifted absorbance at 560 nm. A purified preparation of human 12hLO was supplied by Professor Ted Holman, University of California, Santa Cruz.
Assay Protocol: Buffer: 25 mM Hepes pH 7.0, 0.01% Triton X-100. Reagents/Controls: Buffer in columns 3 and 4 as negative control (no enzyme). Substrate solution: 40 uM arachidonic acid (Sigma-Aldrich, St. Louis, MO) final concentration dispensed throughout the plate. Enzyme: 150 nM 12hLO final concentration in columns 1, 2, 5-48. Column 1 is neutral (100% activity). Column 2 contained pin-transferred titration of NDGA (nordihidroguaiaretic acid, Sigma-Aldrich, N 5023, top concentration 20 mM in DMSO, then 1:3 dilution in duplicate). (Dilution factor: 23 nL into 4 uL.) Chromogenic detection reagent (divalent iron/xylenol orange, Fe-XO): 200 uM xylenol orange plus 300 uM ferrous ammonium sulfate prepared freshly in 50 mM sulfuric acid. Assay Steps: Three uL of enzyme were dispensed to 1536-well Greiner black clear bottom plates. Compounds and controls (23 nL) were transferred via Kalypsys PinTool. The plates were incubated for 15 min at room temperature, and then 1 uL of substrate solution was added to start the reaction. After room temperature incubation for 30 minutes, 4 uL of Fe-XO solution was added to each well and the plates were incubated for 30 min. The absorbance at 405 and 573 nm were measured using ViewLux (Perkin-Elmer) High-throughput CCD imager and absorbance protocol settings. The 573-to-405 absorbance ratio was used to compute reaction progress.
% is set by controls: 0 for no effect and ±100 for the full control effect; potency is the fitted concentration of half-maximal effect.
Note: nearly all actives have a fitted effect of over 55% in size.

Compound	activity change, negative = inhibition	Potency
CCCCc1ccc(-c2csc(/C(C#N)=C/c3ccc(C)o3)n2)cc1	inactive: -6.49%	
O=C(Nc1ccncc1)c1cncc(Br)c1	inactive: 35.7%	
N#Cc1nc(-c2ccccc2)oc1NCCN1CCCCC1	inactive: 20.2%	
Cc1ccc(-c2cc(-c3ccc(Cl)cc3)c(C#N)c(N)n2)o1		active: 11.2 µM
CN1CCC[C@@H]1c1cccnc1	inactive: 4.35%	
CC(NCCC(c1ccccc1)c1ccccc1)c1ccccc1 (stereo unspecified)	inactive: -15.3%	
Cn1cc(/C(Cc2ccccc2)=N\O)c2ccccc21	inactive: 31.3%	
CC(C)COc1ccc(CSCCNC(=S)Nc2ccccc2)cc1		active: 28.2 µM
CC1CCc2nc(NC(=O)Nc3ccc4c(c3)OCO4)sc2C1 (stereo unspecified)	inactive: 31.8%	
O=c1c(O)c(-c2cc(O)c(O)c(O)c2)oc2cc(O)cc(O)c12		inactive
COc1ccc(-n2c(COc3cccc(C)c3)nnc2SCC(=O)NCc2ccco2)cc1	inactive: 3.9%	
CN1CCCC1c1cccnc1 (stereo unspecified)	inactive: -1.86%	
O=C(O)CC[C@@H](C(=O)O)N1C(=O)c2ccccc2C1=O	inactive: -2.19% [at 11.4 µM]	
c1ccc(C2CN3CCSC3=N2)cc1 (stereo unspecified)	inactive: -1.38%	
C/C(=N\NC(=S)NCCc1ccccc1)c1ccc(C)cc1		active: 14.1 µM
Cc1ccc(NCc2nnc(SCC(=O)NCCc3ccccc3)n2C)cc1	inactive: 37.9%	
CN(C)CCCN1c2ccccc2CCc2ccc(Cl)cc21		inactive
C[C@H](NCCC(c1ccccc1)c1ccccc1)c1ccccc1	inactive: -14.2% [at 25.6 µM]	
O=C1c2c(O)cc(O)cc2OC(c2ccc(O)c(O)c2)C1O (stereo unspecified)	inactive: -8.43%	

Compound	activity change, negative = inhibition	Potency
O=C(NCc1ccccc1)c1ccc(C2SCC(=O)N2Cc2ccccc2)cc1 (stereo unspecified)	inactive: 46.5%	
CN1CCc2cccc3c2C1Cc1ccc(O)c(O)c1-3 (stereo unspecified)	inactive: -6.2%	
Cn1c(SCC(=O)N/N=C/C=C/c2ccco2)nc2ccccc21	inactive: -1.92%	
OC1(c2cccc(C(F)(F)F)c2)CCN(c2ncnc3c2[nH]c2ccc(F)cc23)CC1		active: 17.8 µM
Cc1ccc2c(c1)CC1(CN2C)C(=O)OC2(CCCCC2)OC1=O	inactive: 39.9%	
COc1ccc(NS(=O)(=O)c2ccc(NC(=S)NC(=O)CC(C)C)cc2)cc1		active: 15.8 µM
NC(=O)C1CCN(Cc2nc3cc(Cl)ccc3c(=O)[nH]2)CC1	inactive: -14.8%	
O=C1CCC(=O)N1OCCCCOc1ccccc1	inactive: 32.5%	
CN(Cc1cnc2nc(N)nc(N)c2n1)c1ccc(C(=O)N[C@H](CCC(=O)O)C(=O)O)cc1	inactive: 1.62% [at 25.6 µM]	
O=C(Nc1ccccc1)c1ccc(NCC2CCCO2)c(S(=O)(=O)N2CCOCC2)c1 (stereo unspecified)	inactive: 30.3%	
Nc1ccccc1C(=O)/C=C/c1ccc2c(c1)OCO2	inactive: 2.4%	
O=c1c(-c2ccccc2)coc2cc(O)cc(O)c12		active: 11.2 µM
CCc1cccc2c(C(=O)CSc3nncn3-c3ccccc3OC)c[nH]c12	inactive: 19.6%	
C=CCN1C(=O)/C(=C\c2ccco2)C(C(=O)OC)=C1C	inactive: 26.6%	
Clc1ccc(-n2nnnc2-c2cnc(-c3ccccn3)nc2-c2cccs2)cc1	inactive: 56.1%	
NC(Cc1cc(I)c(Oc2ccc(O)c(I)c2)c(I)c1)C(=O)O (stereo unspecified)	inactive: -7.76%	
N#C/C(=C\c1ccc(O)c(O)c1)C(=O)NCCCc1ccccc1	inactive: -27.3%	
CC(=O)N1CCN(c2ccc(NCc3ccc(C)cc3)cc2)CC1		active: 17.8 µM
Cc1cc(C(=O)N[C@H](c2ccccc2)[C@@]2(C)C[C@@H]2[C@@H](C)C(=O)Nc2ccc3ccccc3c2)n(C)n1		inactive

Compound	activity change, negative = inhibition	Potency
COc1ccc(-c2cc(C(=O)N3CCN(Cc4ccccc4)CC3)no2)cc1OC	inactive: 5.45%	
O=C(Cc1ccccc1)N1CCC(C(=O)N2CCN(c3ccc(F)cc3)CC2)CC1	inactive: -3.42%	
Cc1cc(C)nc(NC2=NCC(=O)N2c2ccccc2)n1	inactive: 32%	
CCN(CC)C(=S)SSC(=S)N(CC)CC		inactive
Cc1cc(C)n(-c2nc(NCCC(C)C)c3c4c(sc3n2)COC(C)(C)C4)n1	inactive: 38.2%	
COCC(=O)Nc1ccc(Nc2ccccc2)cc1	inactive: -1.62%	
O=C(CCCCCCCC(=O)NCC1CCCO1)NCC1CCCO1 (stereo unspecified)	inactive: 30.3%	
CN1CCc2c(sc3c2c(NCc2ccco2)nc2nnnn23)C1	inactive: 45.9%	
COc1cc(C2Oc3cc(C4Oc5cc(O)cc(O)c5C(=O)C4O)ccc3OC2CO)ccc1O (stereo unspecified)	inactive: -12%	
CCOC(=O)c1nnc(-c2ccc(C)cc2)nc1Sc1cccc(Cl)c1	inactive: 30.9%	
CCCCCC#CCC#CCC#CCC#CCCCC(=O)O	inactive: -29.4%	
O=C(O)c1cc(O)c2c(c1)C(=O)c1cccc(O)c1C2=O	inactive: -0.624%	
COc1ccccc1N1CCN(CCCCN2C(=O)c3ccccc3C2=O)CC1	inactive: -11.2%	
CNC[C@H](O)c1ccc(O)c(O)c1		inactive
S=C(NCCc1ccc(Cl)cc1)Nc1ccc(Cl)cc1Cl		active: 11.2 µM
N#C/C(=C\c1c[nH]c2ccccc12)C(=O)c1ccc(O)c(O)c1		active: 3.98 µM
S=C(Nc1ccc(Oc2ccc(NC(=S)NC3CCCCC3)cc2)cc1)NC1CCCCC1		active: 1.26 µM
CCc1nnc(NS(=O)(=O)c2ccc(N=Cc3c(C)[nH]n(-c4cccc(Cl)c4)c3=O)cc2)s1	inactive: 22.1%	
